“And” between values parts separate entries of the source, which are not always exact repeats. Equal entries are not always repeated. Screen size: about 420,000 compounds; about 50,000 (12%) were called active. The shares of active, inactive and inconclusive entries below differ from those in the screen. The call rests on the fitted dose curve; in most records, active means well fitted inhibition curve with a large enough effect; inconclusive means small, poorly fitted or top-dose-only effect; inactive means flat fitted curve, though single readings scatter. Potencies beside an inconclusive call are fits to weak or partial responses and may not hold up.
Assay: qHTS for Inhibitors of human tyrosyl-DNA phosphodiesterase 1 (TDP1): qHTS in cells in presence of CPT; further: nearly all actives have a fitted effect of over 55% in size
Settings: chicken DT40 Tdp1-/-;hTDP1 cells + 20 nM CPT, ATP luminescence, 48 h; activity change, negative = growth inhibition: at 46.2 µM (top of the series)
Outline: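 Chicken DT40 Tdp1-/- cells complemented with human TDP1, 400 cells/well, exposed to compounds plus 20 nM camptothecin for at least 48 h at 37 C; viability read as ATP content by CellTiter-Glo luminescence.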
On the % scale 0 is the no-effect control and ±100 the full control effect; potency means the concentration at half of the fitted maximal effect; tags describe the fitted curve by direction and shape.

| SMILES | Potency | activity change, negative = growth inhibition |
| --- | --- | --- |
| COc1ccc(C=C2C(=O)OC(C)(C)OC2=O)cc1OC | inactive | – |
| Cc1ccc(-c2nc(=S)c3c(n2Cc2cccnc2)CC(C)(C)OC3)cc1 | inactive | – |
| COc1ccc(C)cc1NC(=O)C1CCN(S(=O)(=O)c2ccc3c(c2)NC(=O)CO3)CC1 | inactive | – |
| CC(=O)c1ccc(NC(=O)Cn2cnc(S(=O)(=O)N3CCC(C)CC3)c2)cc1 | inconclusive: 25.9 µM [inhibitor, single point] | – |
| Cc1cc(F)ccc1S(=O)(=O)Nc1ccc(C(=O)N2CCCCCC2)cc1 | inconclusive: 25.9 µM [inhibitor, single point] | – |
| O=C(N=Nc1c(O)[nH]c2ccc(Br)cc12)c1cc(-c2cccc3ccccc23)n[nH]1 | inconclusive: 29.1 µM [inhibitor, single point] | – |
| O=C1C2C3C=CC(C4CC34)C2C(=O)N1/N=C/c1ccc(-c2ccccc2[N+](=O)[O-])o1 (stereo not given) | inconclusive: 25.9 µM [inhibitor, single point] | – |
| CS(=O)(=O)N(CC(=O)Nc1cccc(Cl)c1Cl)c1ccccc1 | – | inconclusive: -35.6% [inhibitor] |
| CCC1=NN(C(=O)COc2ccccc2)C(O)(c2ccncc2)C1 (stereo not given) | inconclusive: 18.4 µM [inhibitor, single point] | – |
| O=C(NC(=S)N1CCN(C/C=C/c2ccccc2)CC1)c1ccco1 | inconclusive: 29.1 µM [inhibitor, single point] | – |
| CCCC(NCC(=O)Nc1cc(S(=O)(=O)N2CCOCC2)ccc1OC)c1ccccc1 (stereo not given) | active: 16.4 µM | – |
| O=C(C(O)c1ccccc1)N1CCN(S(=O)(=O)c2ccc(F)c(F)c2)CC1 (stereo not given) | inactive | – |
| Cc1ccc(OCCCSc2nc(-c3ccc(C(C)(C)C)cc3)nc3cc(=O)[nH]n23)cc1C | inconclusive: 25.9 µM [inhibitor, single point] | – |
| CCOC(=O)c1cc(-c2cccnc2)nn1-c1ccccn1 | inactive | – |
| NC(=O)CSC1=Nc2ccccc2C2=NC(c3ccccc3)C(=O)N12 (stereo not given) | inactive | – |
| COc1cccc(CNC(=O)c2cc(=O)[nH]c3ccc(S(=O)(=O)N4CCOCC4)cc23)c1 | inactive | – |
| COc1cc(OC)cc(-c2nc(N)n[nH]2)c1 | inconclusive: 18.4 µM [inhibitor, partial curve] | – |
| CCc1cccc(CC)c1NC(=O)c1ccc(-c2cc(Cl)ccc2Cl)o1 | inconclusive: 10.3 µM [inhibitor, partial curve] | – |
| C[C@H]1CN([C@@H](C)CO)C(=O)CCCn2nncc2CO[C@H]1CN(C)S(=O)(=O)c1ccc2ccccc2c1 | inconclusive: 23.1 µM [inhibitor, single point] | – |
| C=C(C)CSc1nnc(-c2cccc(S(=O)(=O)N(C)C)c2)n1-c1cc(OC)ccc1OC | inconclusive: 29.1 µM [inhibitor, single point] | – |

| SMILES | Potency | activity change, negative = growth inhibition |
| --- | --- | --- |
| COc1cc(/C=N/N2CCCCC2)cc([N+](=O)[O-])c1O | inactive | – |
| CCCc1ccc(Oc2cn[nH]c2-c2ccc(O)cc2O)cc1 | inconclusive: 25.9 µM [inhibitor, partial curve] | – |
| CCOC(=O)C1=CCN(S(=O)(=O)c2ccccc2Br)C1c1ccc(Br)cc1 (stereo not given) | inconclusive: 29.1 µM [inhibitor, single point] | – |
| CCc1nn2c(=O)cc(COC(=O)C(CC)c3ccccc3)nc2s1 (stereo not given) | inconclusive: 29.1 µM [inhibitor, single point] | – |
| O=C(NC(=S)Nc1ccccc1N1CCN(C(=O)c2ccccc2)CC1)c1cccs1 | inconclusive: 14.6 µM [inhibitor, single point] | – |
| COc1ccc(C(=O)NCCn2cc(SCC(=O)Nc3ccc4c(c3)OCCO4)c3ccccc32)cc1OC | active: 14.6 µM | – |
| CCOC(=O)C1=C(COC(=O)/C=C/c2ccc(C)o2)NC(=O)NC1C (stereo not given) | inconclusive: 29.1 µM [inhibitor, single point] | – |
| CN(C)c1ccc(N2[C@@H](CC(=O)O)c3cc(C(F)(F)F)ccc3S2(=O)=O)cc1 | inconclusive: 35.5 µM [inhibitor, single point] and inconclusive: 13 µM [inhibitor, partial curve] | – |
| Cc1c(C(=O)Nc2ccccc2Cl)oc2ccc(S(=O)(=O)N3CCC4(CC3)OCCO4)cc12 | – | inconclusive: -32.8% [inhibitor] |
| COC(=O)c1cn(CC(=O)NC2CCCCC2)c2ccccc12 | inactive | – |
| CCCNC(=O)CSc1nc(-c2ccc(OC)cc2)cc(C(F)(F)F)n1 | inconclusive: 23.1 µM [inhibitor, single point] | – |
| CCCCn1c(SCC(=O)c2ccc3c(c2)OCCO3)nnc1-c1ccco1 | inconclusive: 29.1 µM [inhibitor, single point] | – |
| COc1cc(-c2nc(-c3cccc(C(F)(F)F)c3)no2)cc(OC)c1OC | inconclusive: 29.1 µM [inhibitor, single point] | – |
| COc1ccccc1-n1cnc2c(c1=O)c1nc3ccccc3nc1n2-c1ccc(C)cc1 | inconclusive: 23.1 µM [inhibitor, single point] | – |
| Cc1ccc(S(=O)(=O)N2CCOCC2)cc1C(=O)N1CCC(Cc2ccccc2)CC1 | inconclusive: 29.1 µM [inhibitor, single point] | – |
| Cc1cccc(-c2nc(CSCC(=O)NCc3cccs3)c(C)o2)c1 | inconclusive: 16.4 µM [inhibitor, partial curve] | – |
| CCCCn1c(-c2ccc(C(C)(C)C)cc2)nc2cc3[nH]c(=O)c(C(C)C)nc3cc21 | inconclusive: 29.1 µM [inhibitor, single point] | – |
| O=C(c1sccc1-c1ccccc1)N1CCN(S(=O)(=O)c2ccccc2)CC1 | inconclusive: 25.9 µM [inhibitor, partial curve, poor fit] | – |
| Fc1ccc(/C=C/c2nnc(-c3cccs3)o2)cc1 | inactive | – |
| CNCC[C@@H](Oc1ccccc1C)c1ccccc1 | inconclusive: 18.8 µM [inhibitor, partial curve, poor fit] and inconclusive: 33.5 µM [inhibitor, single point] and inconclusive: 13 µM [inhibitor, partial curve] | – |
